# Results published in PMC9911399, “Two distinct binding modes provide the RNA-binding protein RbFox with extraordinary sequence specificity”.
# Positions count from the first letter of the chain named. The list shows a part of the results.
# T1: RBFOX1 RRM (Homo sapiens, UniProt Q9NWB1 109-208)
# T1 sequence: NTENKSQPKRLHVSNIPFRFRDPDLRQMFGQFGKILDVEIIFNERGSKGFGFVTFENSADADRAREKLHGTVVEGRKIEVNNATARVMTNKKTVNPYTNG
# B1: GACAACA (DNA:RNA)
# RNA: GGGAGACCGGAAUUCAGAUUGUCCGACAACAUUAAAUCCCGUCGUAGCCACCA
# DNA 1: CAATCTGAATTCCGGTCTCCC
# DNA 2: TGGTGGCTACGACGGGATT
# B2: UUCUGUC (DNA:RNA)
# RNA: B1 RNA with G25U, A26U, A28U, A29G, C30U, A31C
# DNA 1: CAATCTGAATTCCGGTCTCCC
# DNA 2: TGGTGGCTACGACGGGATT
# B3: GCCACGU (DNA:RNA)
# RNA: B1 RNA with A26C, A29C, C30G, A31U
# DNA 1: CAATCTGAATTCCGGTCTCCC
# DNA 2: TGGTGGCTACGACGGGATT
# B4: GAAGCUU (DNA:RNA)
# RNA: B1 RNA with C27A, A28G, A29C, C30U, A31U
# DNA 1: CAATCTGAATTCCGGTCTCCC
# DNA 2: TGGTGGCTACGACGGGATT
# B5: CAAUGAU (DNA:RNA)
# RNA: B1 RNA with G25C, C27A, A28U, A29G, C30A, A31U
# DNA 1: CAATCTGAATTCCGGTCTCCC
# DNA 2: TGGTGGCTACGACGGGATT
# B6: UUCCGAU (DNA:RNA)
# RNA: B1 RNA with G25U, A26U, A28C, A29G, C30A, A31U
# DNA 1: CAATCTGAATTCCGGTCTCCC
# DNA 2: TGGTGGCTACGACGGGATT
# B7: GCCGCGU (DNA:RNA)
# RNA: B1 RNA with A26C, A28G, A29C, C30G, A31U
# DNA 1: CAATCTGAATTCCGGTCTCCC
# DNA 2: TGGTGGCTACGACGGGATT
# B8: UAUUUUA (DNA:RNA)
# RNA: B1 RNA with G25U, C27U, A28U, A29U, C30U
# DNA 1: CAATCTGAATTCCGGTCTCCC
# DNA 2: TGGTGGCTACGACGGGATT
# B9: GAGACGG (DNA:RNA)
# RNA: B1 RNA with C27G, A29C, C30G, A31G
# DNA 1: CAATCTGAATTCCGGTCTCCC
# DNA 2: TGGTGGCTACGACGGGATT
# B10: ACUAACC (DNA:RNA)
# RNA: B1 RNA with G25A, A26C, C27U, A31C
# DNA 1: CAATCTGAATTCCGGTCTCCC
# DNA 2: TGGTGGCTACGACGGGATT
# B11: AAUCAUA (DNA:RNA)
# RNA: B1 RNA with G25A, C27U, A28C, C30U
# DNA 1: CAATCTGAATTCCGGTCTCCC
# DNA 2: TGGTGGCTACGACGGGATT
# B12: ACGCUCA (DNA:RNA)
# RNA: B1 RNA with G25A, A26C, C27G, A28C, A29U
# DNA 1: CAATCTGAATTCCGGTCTCCC
# DNA 2: TGGTGGCTACGACGGGATT
# B13: AUUCGGC (DNA:RNA)
# RNA: GGGAGACCGGAAUUCAGAUUGUCCAUUCGGCUUAAAUCCCGUCGUAGCCACCA
# DNA 1: CAATCTGAATTCCGGTCTCCC
# DNA 2: TGGTGGCTACGACGGGATT
# B14: UGCCGAG (DNA:RNA)
# RNA: B13 RNA with A25U, U26G, U27C, G30A, C31G
# DNA 1: CAATCTGAATTCCGGTCTCCC
# DNA 2: TGGTGGCTACGACGGGATT
# B15: AGAGAGU (DNA:RNA)
# RNA: B13 RNA with U26G, U27A, C28G, G29A, C31U
# DNA 1: CAATCTGAATTCCGGTCTCCC
# DNA 2: TGGTGGCTACGACGGGATT
# B16: AUGGGAU (DNA:RNA)
# RNA: B13 RNA with U27G, C28G, G30A, C31U
# DNA 1: CAATCTGAATTCCGGTCTCCC
# DNA 2: TGGTGGCTACGACGGGATT
# B17: UGCAUCG (DNA:RNA)
# RNA: B1 RNA with G25U, A26G, A29U, A31G
# DNA 1: CAATCTGAATTCCGGTCTCCC
# DNA 2: TGGTGGCTACGACGGGATT
# B18: GUUGAUU (DNA:RNA)
# RNA: B13 RNA with A25G, C28G, G29A, G30U, C31U
# DNA 1: CAATCTGAATTCCGGTCTCCC
# DNA 2: TGGTGGCTACGACGGGATT
# B19: ACGCUAC (DNA:RNA)
# RNA: B13 RNA with U26C, U27G, G29U, G30A
# DNA 1: CAATCTGAATTCCGGTCTCCC
# DNA 2: TGGTGGCTACGACGGGATT
# B20: CCCGGUU (DNA:RNA)
# RNA: B13 RNA with A25C, U26C, U27C, C28G, G30U, C31U
# DNA 1: CAATCTGAATTCCGGTCTCCC
# DNA 2: TGGTGGCTACGACGGGATT
# B21: GCAGGAU (DNA:RNA)
# RNA: B13 RNA with A25G, U26C, U27A, C28G, G30A, C31U
# DNA 1: CAATCTGAATTCCGGTCTCCC
# DNA 2: TGGTGGCTACGACGGGATT
# B22: ACGGCUU (DNA:RNA)
# RNA: B13 RNA with U26C, U27G, C28G, G29C, G30U, C31U
# DNA 1: CAATCTGAATTCCGGTCTCCC
# DNA 2: TGGTGGCTACGACGGGATT
# B23: AGCAGUA (DNA:RNA)
# RNA: B1 RNA with G25A, A26G, A29G, C30U
# DNA 1: CAATCTGAATTCCGGTCTCCC
# DNA 2: TGGTGGCTACGACGGGATT
# B24: UAAAACA (DNA:RNA)
# RNA: B1 RNA with G25U, C27A
# DNA 1: CAATCTGAATTCCGGTCTCCC
# DNA 2: TGGTGGCTACGACGGGATT
# B25: GCCUCUU (DNA:RNA)
# RNA: B1 RNA with A26C, A28U, A29C, C30U, A31U
# DNA 1: CAATCTGAATTCCGGTCTCCC
# DNA 2: TGGTGGCTACGACGGGATT
# B26: AGGUUUA (DNA:RNA)
# RNA: B13 RNA with U26G, U27G, C28U, G29U, G30U, C31A
# DNA 1: CAATCTGAATTCCGGTCTCCC
# DNA 2: TGGTGGCTACGACGGGATT
# B27: UUAGCGG (DNA:RNA)
# RNA: B13 RNA with A25U, U27A, C28G, G29C, C31G
# DNA 1: CAATCTGAATTCCGGTCTCCC
# DNA 2: TGGTGGCTACGACGGGATT
# B28: CACUGCC (DNA:RNA)
# RNA: B1 RNA with G25C, A28U, A29G, A31C
# DNA 1: CAATCTGAATTCCGGTCTCCC
# DNA 2: TGGTGGCTACGACGGGATT
# B29: UGAAUUC (DNA:RNA)
# RNA: B13 RNA with A25U, U26G, U27A, C28A, G29U, G30U
# DNA 1: CAATCTGAATTCCGGTCTCCC
# DNA 2: TGGTGGCTACGACGGGATT
# B30: CAUACUA (DNA:RNA)
# RNA: B1 RNA with G25C, C27U, A29C, C30U
# DNA 1: CAATCTGAATTCCGGTCTCCC
# DNA 2: TGGTGGCTACGACGGGATT
# B31: GUCAUUU (DNA:RNA)
# RNA: B1 RNA with A26U, A29U, C30U, A31U
# DNA 1: CAATCTGAATTCCGGTCTCCC
# DNA 2: TGGTGGCTACGACGGGATT
# Biological target: T1, RBFOX1 RRM
# Assay: EMSA; HiTS-Eq, 1 nM pool, 10 min; buffer printed only for the single-RNA assays: 10 mM Tris pH 7.5, 150 mM NaCl, 3.4 mM EDTA, 0.001% NP-40, 30 C
# Conditions: tags: His6 N-terminal (pET28a); label: 5' 32P
# Summary of the method: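 Purified wild-type or mutant RbFox RRM at increasing concentrations was equilibrated with 1 nM of 5′-radiolabelled RNA carrying 7 randomized nucleotides for 10 min in 50 µL. Unbound RNA was separated by 8% native PAGE and sequenced. Relative association constants came from read-count changes of each RNA species compared with the control reaction, normalised to the cognate motif.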
row,Binder,binding signal
1,B1,0.00142 KA relative to UGCAUGU
2,B2,0.0193 KA relative to UGCAUGU
3,B3,0.011 KA relative to UGCAUGU
4,B4,0.0107 KA relative to UGCAUGU
5,B5,0.00274 KA relative to UGCAUGU
6,B6,0.00897 KA relative to UGCAUGU
7,B7,0.0161 KA relative to UGCAUGU
8,B8,0.00705 KA relative to UGCAUGU
9,B9,0.0118 KA relative to UGCAUGU
10,B10,0.00187 KA relative to UGCAUGU
11,B11,0.00052 KA relative to UGCAUGU
12,B12,0.00635 KA relative to UGCAUGU
13,B13,0.00892 KA relative to UGCAUGU
14,B14,0.0232 KA relative to UGCAUGU
15,B15,0.0122 KA relative to UGCAUGU
16,B16,0.0102 KA relative to UGCAUGU

row,Binder,binding signal
1,B17,0.0295 KA relative to UGCAUGU
2,B18,0.0225 KA relative to UGCAUGU
3,B19,0.00671 KA relative to UGCAUGU
4,B20,0.00756 KA relative to UGCAUGU
5,B21,0.011 KA relative to UGCAUGU
6,B22,0.0099 KA relative to UGCAUGU
7,B23,0.00564 KA relative to UGCAUGU
8,B24,0.00245 KA relative to UGCAUGU
9,B25,0.0112 KA relative to UGCAUGU
10,B26,0.00548 KA relative to UGCAUGU
11,B27,0.00858 KA relative to UGCAUGU
12,B28,0.00554 KA relative to UGCAUGU
13,B29,0.008 KA relative to UGCAUGU
14,B30,0.000261 KA relative to UGCAUGU
15,B31,0.00547 KA relative to UGCAUGU
